Assay results as given in PMC11149917, “Translational and Therapeutic Evaluation of RAS-GTP Inhibition by RMC-6236 in RAS-Driven Cancers” (Cancer Discovery, 2024).
This continues a long series; more values of the same kind are listed elsewhere.

Tested on: PRISM panel of 845 cancer cell lines
Assay: PRISM assay
Type: cell-based, human
Experimental: The PRISM cell set comprised 845 cell lines representing more than 45 lineages (see Supplementary Table S1 for cell line information), which largely overlapped with the Cancer Cell Line Encyclopedia; https://portals.broadinstitute.org/ccle). Cell lines were grown in RPMI without phenol red and supplemented with 10% or 20% FBS for adherent and suspended lines, respectively. Parental cell lines were stably infected with a unique 24-nucleotide DNA barcode via lentiviral transduction and blasticidin selection. After selection, barcoded cell lines were expanded and subjected to quality control (Mycoplasma contamination test, an SNP test for confirming cell line identity, and barcode ID confirmation). Approved cell lines were then pooled (20–25 cell lines per pool) based on doubling time similarity and frozen in assay-ready vials.
RMC-6236 was added to 384-well plates at 8-point concentration with 3-fold dilutions in triplicate. These assay-ready plates were then seeded with the thawed cell line pools. Adherent cell pools were plated at 1,250 cells per well, whereas suspension and mixed adherent/suspension pools were plated at 2,000 cells per well. Treated cells were incubated for 5 days, and then lysed. Lysate plates were collapsed together prior to barcode amplification and detection.
Each cell line's unique barcode is located in the 3′UTR of the blasticidin-resistance gene and therefore is expressed as mRNA. Total mRNA was captured using magnetic particles that recognize polyA sequences. Captured mRNA was reverse-transcribed into cDNA and then the sequence containing the unique PRISM barcode was amplified using PCR. Finally, Luminex beads that recognize the specific barcode sequences in the cell set were hybridized to the PCR products and detected using a Luminex scanner which reports the signal as a median fluorescent intensity (MFI).
• Each detection well contained 10 control barcodes in increasing abundances as spike-in controls. For each plate, we first create a reference profile by calculating the median of the log2(MFI) values across negative control wells for each of these spiked-in barcodes. • For each well, a monotonic smooth p-spline was fitted to map the spike-in control levels to the reference profile. Next, we transform the log2(MFI) for each cell barcode using the fitted spline to allow well-to-well comparisons by correcting for amplification and detection artifacts. • Next, the separability between negative and positive control treatments was assessed. In particular, we calculated the error rate of the optimum simple threshold classifier between the control samples for each cell line and plate combination. The error rate is a measure of the overlap of the two control sets and was defined as error = (FP + FN)/n, where FP is false positives, FN is false negatives, and n is the total number of controls. A threshold was set between the distributions of positive and negative control log2(MFI) values (with everything below the threshold said to be positive and above said to be negative) such that this value is minimized. Additionally, we also calculated the dynamic range of each cell line. […] Additionally, any cell line that had less than 2 passing replicates was also omitted for the sake of reproducibility. Finally, we computed viability by normalizing with respect to the median negative control for each plate.
For every gene with nonsilent mutations in at least four cell lines, we compared the AUC values between cells with and without those mutations using a t test. This analysis was carried out for (i) the full data set; (ii) excluding cell lines with nonsilent KRAS mutations; and (iii) excluding cell lines that have either KRAS or NRAS nonsilent mutations.

CCn1c(-c2cc(N3CCN(C)CC3)cnc2[C@H](C)OC)c2c3cc(ccc31)-c1csc(n1)C[C@H](NC(=O)[C@H]1C[C@@H]1C)C(=O)N1CCC[C@H](N1)C(=O)OCC(C)(C)C2 [RMC-6236]
RMC-6236: RevMed PRISM: AUC (EGI1_BILIARY_TRACT, KRAS p.G12D): 0.441 | RMC-6236: RevMed PRISM: AUC (EKVX_LUNG): 0.752 | RMC-6236: RevMed PRISM: AUC (EM2_HAEMATOPOIETIC_AND_LYMPHOID_TISSUE): 0.557 | RMC-6236: RevMed PRISM: AUC (EMTOKA_ENDOMETRIUM): 0.6623 | RMC-6236: RevMed PRISM: AUC (ES2_OVARY): 0.8862 | RMC-6236: RevMed PRISM: AUC (ESS1_ENDOMETRIUM): 0.6148 | RMC-6236: RevMed PRISM: AUC (FLO1_OESOPHAGUS): 1 | RMC-6236: RevMed PRISM: AUC (FTC133_THYROID): 0.7242 | RMC-6236: RevMed PRISM: AUC (FTC238_THYROID): 1 | RMC-6236: RevMed PRISM: AUC (G361_SKIN): 1 | RMC-6236: RevMed PRISM: AUC (G415_BILIARY_TRACT, KRAS p.G13D): 0.6508 | RMC-6236: RevMed PRISM: AUC (GAMG_CENTRAL_NERVOUS_SYSTEM): 0.7635 | RMC-6236: RevMed PRISM: AUC (GB1_CENTRAL_NERVOUS_SYSTEM): 1 | RMC-6236: RevMed PRISM: AUC (GCT_SOFT_TISSUE): 0.8928 | RMC-6236: RevMed PRISM: AUC (GIMEN_AUTONOMIC_GANGLIA): 0.8496 | RMC-6236: RevMed PRISM: AUC (GOS3_CENTRAL_NERVOUS_SYSTEM): 0.7506 | RMC-6236: RevMed PRISM: AUC (GP2D_LARGE_INTESTINE, KRAS p.G12D): 0.6016 | RMC-6236: RevMed PRISM: AUC (GSS_STOMACH): 0.7048 | RMC-6236: RevMed PRISM: AUC (GSU_STOMACH, KRAS p.G12D): 0.296 | RMC-6236: RevMed PRISM: AUC (H157_UPPER_AERODIGESTIVE_TRACT): 0.5376 | RMC-6236: RevMed PRISM: AUC (H376_UPPER_AERODIGESTIVE_TRACT): 0.6121 | RMC-6236: RevMed PRISM: AUC (H413_UPPER_AERODIGESTIVE_TRACT): 0.6014 | RMC-6236: RevMed PRISM: AUC (HCA1_CERVIX): 0.6491 | RMC-6236: RevMed PRISM: AUC (HCC15_LUNG, NRAS p.C186F, p.Q61K): 0.752 | RMC-6236: RevMed PRISM: AUC (HCC33_LUNG): 1 | RMC-6236: RevMed PRISM: AUC (HCC38_BREAST): 0.6233 | RMC-6236: RevMed PRISM: AUC (HCC44_LUNG, KRAS p.G12C): 0.5816 | RMC-6236: RevMed PRISM: AUC (HCC56_LARGE_INTESTINE, KRAS p.G12V): 0.2532 | RMC-6236: RevMed PRISM: AUC (HCC95_LUNG): 0.6032 | RMC-6236: RevMed PRISM: AUC (HCC515_LUNG, KRAS p.G13D): 0.906 | RMC-6236: RevMed PRISM: AUC (HCC1143_BREAST): 0.6796 | RMC-6236: RevMed PRISM: AUC (HCC1359_LUNG): 0.8757 | RMC-6236: RevMed PRISM: AUC (HCC1395_BREAST): 0.7557 | RMC-6236: RevMed PRISM: AUC (HCC1419_BREAST, HRAS p.R128W): 0.7992 | RMC-6236: RevMed PRISM: AUC (HCC1428_BREAST): 0.8123 | RMC-6236: RevMed PRISM: AUC (HCC1438_LUNG): 0.9283 | RMC-6236: RevMed PRISM: AUC (HCC1806_BREAST): 0.8742 | RMC-6236: RevMed PRISM: AUC (HCC1954_BREAST): 0.6911 | RMC-6236: RevMed PRISM: AUC (HCC2108_LUNG, KRAS p.Q61H): 0.5828 | RMC-6236: RevMed PRISM: AUC (HCC4006_LUNG): 0.5176 | RMC-6236: RevMed PRISM: AUC (HDMYZ_HAEMATOPOIETIC_AND_LYMPHOID_TISSUE, NRAS p.G13D): 0.7306 | RMC-6236: RevMed PRISM: AUC (HEC1B_ENDOMETRIUM, KRAS p.G12D): 0.615 | RMC-6236: RevMed PRISM: AUC (HEC1_ENDOMETRIUM, KRAS p.G12D): 0.8171 | RMC-6236: RevMed PRISM: AUC (HEC6_ENDOMETRIUM): 0.9233 | RMC-6236: RevMed PRISM: AUC (HEC108_ENDOMETRIUM): 0.7701 | RMC-6236: RevMed PRISM: AUC (HEL9217_HAEMATOPOIETIC_AND_LYMPHOID_TISSUE): 0.7653 | RMC-6236: RevMed PRISM: AUC (HEL_HAEMATOPOIETIC_AND_LYMPHOID_TISSUE): 0.7938 | RMC-6236: RevMed PRISM: AUC (HEP3B217_LIVER): 0.9272 | RMC-6236: RevMed PRISM: AUC (HGC27_STOMACH): 0.8085 | RMC-6236: RevMed PRISM: AUC (HH_HAEMATOPOIETIC_AND_LYMPHOID_TISSUE): 0.8642 | RMC-6236: RevMed PRISM: AUC (HKGZCC_BILIARY_TRACT, KRAS p.Q61H): 0.4553 | RMC-6236: RevMed PRISM: AUC (HLF_LIVER): 0.7353 | RMC-6236: RevMed PRISM: AUC (HMC18_BREAST, KRAS p.G12V): 0.3209 | RMC-6236: RevMed PRISM: AUC (HPAC_PANCREAS, KRAS p.G12D): 0.3943 | RMC-6236: RevMed PRISM: AUC (HPAFII_PANCREAS, KRAS p.G12D): 0.337 | RMC-6236: RevMed PRISM: AUC (HS294T_SKIN): 0.8481 | RMC-6236: RevMed PRISM: AUC (HS683_CENTRAL_NERVOUS_SYSTEM): 0.7931 | RMC-6236: RevMed PRISM: AUC (HS729_SOFT_TISSUE): 0.9268 | RMC-6236: RevMed PRISM: AUC (HS766T_PANCREAS, KRAS p.Q61H): 0.4003 | RMC-6236: RevMed PRISM: AUC (HS944T_SKIN, NRAS p.Q61K): 0.4942 | RMC-6236: RevMed PRISM: AUC (HSC1_SKIN): 0.6332 | RMC-6236: RevMed PRISM: AUC (HSC2_UPPER_AERODIGESTIVE_TRACT): 0.6438 | RMC-6236: RevMed PRISM: AUC (HSC3_UPPER_AERODIGESTIVE_TRACT): 0.5856 | RMC-6236: RevMed PRISM: AUC (HSKTC_OVARY): 0.9967 | RMC-6236: RevMed PRISM: AUC (HT3_CERVIX): 0.6913 | RMC-6236: RevMed PRISM: AUC (HT144_SKIN): 0.8589 | RMC-6236: RevMed PRISM: AUC (HT1197_URINARY_TRACT, NRAS p.Q61R): 0.8356 | RMC-6236: RevMed PRISM: AUC (HT1376_URINARY_TRACT): 0.7104 | RMC-6236: RevMed PRISM: AUC (HUCCT1_BILIARY_TRACT, KRAS p.G12D): 0.4281 | RMC-6236: RevMed PRISM: AUC (HUG1N_STOMACH): 0.8989 | RMC-6236: RevMed PRISM: AUC (HUH6_LIVER): 0.8747 | RMC-6236: RevMed PRISM: AUC (HUH28_BILIARY_TRACT): 0.9593 | RMC-6236: RevMed PRISM: AUC (HUO9_BONE): 1 | RMC-6236: RevMed PRISM: AUC (HUPT3_PANCREAS, KRAS p.G12R): 0.4399 | RMC-6236: RevMed PRISM: AUC (HUPT4_PANCREAS, KRAS p.G12V): 0.3159 | RMC-6236: RevMed PRISM: AUC (IALM_LUNG, KRAS p.G12C): 0.4472 | RMC-6236: RevMed PRISM: AUC (ICC8_BILIARY_TRACT): 0.8664 | RMC-6236: RevMed PRISM: AUC (ICC10_BILIARY_TRACT): 0.4792 | RMC-6236: RevMed PRISM: AUC (ICC137_BILIARY_TRACT): 0.6956 | RMC-6236: RevMed PRISM: AUC (IGR1_SKIN): 0.9058 | RMC-6236: RevMed PRISM: AUC (IGR37_SKIN): 1 | RMC-6236: RevMed PRISM: AUC (IGROV1_OVARY): 0.8942 | RMC-6236: RevMed PRISM: AUC (IM95_STOMACH): 0.6295 | RMC-6236: RevMed PRISM: AUC (IPC298_SKIN, NRAS p.Q61L): 0.4786 | RMC-6236: RevMed PRISM: AUC (ISTMES2_PLEURA): 0.9791 | RMC-6236: RevMed PRISM: AUC (JEKO1_HAEMATOPOIETIC_AND_LYMPHOID_TISSUE): 0.917 | RMC-6236: RevMed PRISM: AUC (JHH1_LIVER): 0.5417 | RMC-6236: RevMed PRISM: AUC (JHH4_LIVER): 0.9202 | RMC-6236: RevMed PRISM: AUC (JHH5_LIVER): 0.5324 | RMC-6236: RevMed PRISM: AUC (JHH7_LIVER): 0.7752 | RMC-6236: RevMed PRISM: AUC (JHOM1_OVARY): 0.8164 | RMC-6236: RevMed PRISM: AUC (JHOS2_OVARY): 0.7954 | RMC-6236: RevMed PRISM: AUC (JIMT1_BREAST): 0.7018
